Among all 360,000 compounds or so, about 6,000 (1.7%) were called active. Inconclusive means that the source gave no clear call. Such entries were picked first, then a sample of the others. The call rests on the fitted dose curve; in most records, active means well fitted cell-killing curve with a large enough effect; inconclusive means small, poorly fitted or top-dose-only effect, or effect the other way; inactive means flat fitted curve, though single readings scatter. No potency is given beside an inconclusive call; the fits are too rough.
Assay: qHTS for induction of synthetic lethality in tumor cells producing 2HG: qHTS for the HT-1080-NT fibrosarcoma cell line;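 further: NT is the 2HG producing partner of a matched IDH1 knockdown line; nearly all actives have a fitted effect of over 55% in size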;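 on activity, negative = less viability: 0% = DMSO-treated cells and -100% = media-only wells without cells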
Settings: HT-1080-NT fibrosarcoma viability, CellTiter-Glo ATP luminescence, 48 h; activity, negative = less viability: at 46.1 µM (top of the series) unless noted
Outline: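 A 48-hour cytotoxicity screen used HT-1080-NT cells plated 2 hours before compound delivery. ATP-based CellTiter-Glo luminescence measured viability, normalized to DMSO and no-cell controls.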
Potency means the concentration at half of the fitted maximal effect; tags describe the fitted curve by direction and shape.

SMILES	Potency	activity, negative = less viability
Cc1ccc(Cl)cc1N1CCN(C(=O)Cc2c(C(=O)O)[nH]c3ccc(Cl)cc23)CC1	inconclusive [cytotoxic, single point]	
COc1ccc2nc(NC(=S)N(C)C)sc2c1		inactive: -2.41%
COc1cccc(C(O)c2nc(-c3ccc(F)c(Cl)c3)cs2)c1 (configuration not stated)	inconclusive [cytotoxic, single point]	
CC1=Cc2ccccc2C(C#N)N1C(=O)c1ccccc1 (configuration not stated)	inconclusive [cytotoxic, single point]	
COC(=O)c1c(-c2cc(OC)cc(OC)c2)sc2ccc(OC)cc12		inactive: -5.67%
O=[N+]([O-])c1cc(S(=O)(=O)C(F)(F)F)ccc1Sc1nc2ccccc2s1	active: 23.1 µM	
O=S(=O)(c1ccc2nc(COc3ccc(Cl)cc3Cl)[nH]c2c1)N1CCOCC1	inconclusive [cytotoxic, single point]	
Cc1ccc2c(CC(=O)N3CCN(c4ccccc4)CC3)coc2c1		inactive: 4.46%
CCCCNC(=O)c1nc(C2CCN(S(=O)(=O)c3ccc(OC(F)(F)F)cc3)CC2)oc1-c1ccccc1		inactive: -11.2%
CC1=NNC(=O)C1CC(=O)N/N=C/C=C/c1ccccc1 (configuration not stated)	inconclusive [rising, single point]	
Cn1c(N2CCN(C(c3ccccc3)c3ccccc3)CC2)nc2ccccc21	inconclusive [cytotoxic, single point]	
CC(C)N(C(=O)COC(=O)c1ccccc1C(=O)c1ccc(Cl)c([N+](=O)[O-])c1)C(C)C	active: 18.4 µM	
O=C(CCN1C(=O)[C@@H]2Cc3ccccc3CN2C1=O)NCc1ccc(Cl)cc1		inactive: 0.151%
CSc1nnc(C(C)(C)C)c(=O)n1/N=C/c1ccc(Cl)cc1		inactive: 25.7%
Nc1nnc(CC(=O)N/N=C/c2ccccc2OCc2ccc(F)cc2)s1	inconclusive [cytotoxic, single point]	
O=C1C=C(Nc2ccccc2)C(=O)c2ccccc21	active: 14.6 µM	
CCOc1ccc(OCC(=O)N2CCN(S(=O)(=O)c3ccccc3)CC2)cc1		inactive: 7.67%
CCOc1ccc(C2c3[nH]c4ccccc4c3CCN2CCCn2cccn2)cc1 (configuration not stated)	inconclusive [cytotoxic, partial curve]	
Cc1cc(O)c(C(C)C)cc1C1(c2cc(C(C)C)c(O)cc2C)OC(=O)c2ccccc21	active: 8.2 µM	

SMILES	Potency	activity, negative = less viability
Cc1c(O)cc2c(c1O)C(=O)CC(c1ccccc1)O2 (configuration not stated)	inconclusive [cytotoxic, single point]	
COCCn1nnnc1C(c1cc2c(C)cc(C)cc2[nH]c1=O)N1CCCCCC1 (configuration not stated)		inactive: -22.2%
Cn1c(CN2CCCCC2)nc2cc(NC(=O)c3ccc(F)cc3)ccc21		inactive: -29.8%
C/C(=N\NC(=O)c1cccc([N+](=O)[O-])c1)c1cccc(NC(=O)C2CC2)c1	inconclusive [cytotoxic, partial curve]	
O=C(Nc1ccccc1Br)C1CC(=O)N(c2ccc3c4c(cccc24)CC3)C1 (configuration not stated)	inconclusive [cytotoxic, partial curve, poor fit]	
COc1cccc(-c2coc3c(C)c4oc(=O)c(CCC(=O)O)c(C)c4cc23)c1	inconclusive [cytotoxic, single point]	
Cc1occc1C(=O)NNC(=S)Nc1cccc([N+](=O)[O-])c1	inconclusive [cytotoxic, single point]	
Cn1c(COc2ccc(Br)cc2)nnc1SC1CCc2ccccc2C1=O (configuration not stated)		inactive: -16%
O=C(NC(=S)NNC(=O)c1cccs1)c1ccco1	inconclusive [cytotoxic, single point]	
Cc1nnc2ccc(-c3cccc(NC(=O)c4ccc(Br)o4)c3)nn12	inconclusive [cytotoxic, single point]	
CCCCCC(O)c1cccc(OCc2ccc3ccccc3n2)c1 (configuration not stated)	active: 14.6 µM	
O=C(NCC1CCN(Cc2ccccc2Cl)CC1)Nc1cccc(Cl)c1		inactive: -26.3%
CCOc1ccc(C(=O)CCC(=O)NCC(=O)Nc2c(C)cccc2C)cc1		inactive: 3.22%
O=C(NN1CCOCC1)c1cc(-c2ccncc2)nc2ccccc12	inconclusive [rising, partial curve, poor fit]	
O=C(O)COc1ccc(/C=C/C(=O)c2ccc3ccccc3c2)cc1	inconclusive [cytotoxic, single point]	
COC(=O)c1sccc1NC(=O)CSc1ccccc1NS(=O)(=O)c1cc(Cl)ccc1Cl	inconclusive [cytotoxic, single point]	
Cc1ccc(NC(=O)C2(S(=O)(=O)c3ccc(Cl)cc3)CC2)c(Br)c1		inactive: -0.24%
CCN(CC)CCNC(=O)c1ccc2c(=O)n(C3CCCC3)c(=S)[nH]c2c1	inconclusive [cytotoxic, single point]	

Reference: PubChem BioAssay AID686970 (National Center for Advancing Translational Sciences (NCATS), 2013)
